Laboratory results from patent publication US20090104257A1 (priority 2007, published 2009).

Experiment: Concentration of vancomycin in the lungs of infected mice (Example 9)

CN[C@H](CC(C)C)C(=O)N[C@H]1C(=O)N[C@@H](CC(N)=O)C(=O)N[C@H]2C(=O)N[C@H]3C(=O)N[C@H](C(=O)N[C@H](C(=O)O)c4cc(O)cc(O)c4-c4cc3ccc4O)[C@H](O)c3ccc(c(Cl)c3)Oc3cc2cc(c3O[C@@H]2O[C@H](CO)[C@@H](O)[C@H](O)[C@H]2O[C@H]2C[C@](C)(N)[C@H](O)[C@H](C)O2)Oc2ccc(cc2Cl)[C@H]1O [Vancomycin, vancomycin]
Vancomycin (ug/lung), individual mice ((6 mg/kg/day) injected IP, 4 days post therapy, 0 = below the level of detection, listed as Soluble Vancomycin): #0 ug/lung | vancomycin in the lungs at day seven (IP injection of 12 mg/kg/day (FIG. 7)): No vancomycin was detected | initial daily lung dose (IP, based on 4% of the delivered dose in the lungs 30 min post injection): 15 ug of vancomycin/lung | animals with vancomycin in lung / survivors (Intraperitoneal, BID × 3, 12 mg/kg/day): 0/12 | vancomycin detected after IP injection (Six (6) hours after IP injection, Swiss Webster mice): no detectable vancomycin
